One test addresses human CCR8 (human) (UniProt P51685). The test can be described thus: flow cytometry, inhibition of hCCL1-AF647 (10 nM) binding to hCCR8-CHO cells. For orientation: Flow cytometry measures light scatter and fluorescence of single cells or particles in a stream.
In test [1] the target is human CCR8 with a SNAP-tag at the N-terminus (human) (UniProt P51685). The test can be described thus: HTRF Tag-lite, inhibition of hCCL1-AF647 binding to SNAP-hCCR8 on HEK-293 cells.

Our source for the IC50 and Ki values is patent US20260132208A1.

Some entries of the source have several records that differ or are many. They are shown here; other results are not. The source may hold further records. The values listed for one entry appear to be repeats on other runs, samples or individuals.

For the substance “murine anti-human CCR8 monoclonal antibody L263G8”, the IC50 (as a rule, the concentration that gives 50% inhibition) with human CCR8 (human) is 0.4 µg/mL and 2.7 nM [columns of one line]. For the same substance, in test [1], the IC50 is 0.14 µg/mL and 0.96 nM [columns of one line]; the inhibition constant (Ki) (in general, the equilibrium dissociation constant of an inhibitor or competing ligand from its target) was 0.07 µg/mL and 0.48 nM [columns of one line].
